Source: article PMC10407929
The other results are listed elsewhere or left out. Measured with an extract: partners may take part in the binding.

Key:
Test in all cases: pull-down
[1] = target: ALYREF (Homo sapiens) (UniProt Q86V81); conditions: 150 mM NaCl, 50 mM Tris pH 8.0, 0.25% NP-40, 1 mM DTT; 4 C, 2 h; 100 ug nuclear extract; double strand, one strand shown
[2] = target: APTX (Homo sapiens) (UniProt Q7Z2E3); conditions: 150 mM NaCl, 50 mM Tris pH 8.0, 0.25% NP-40, 1 mM DTT, 4 C, 2 h, 100 ug nuclear extract, double strand, one strand shown
Chain of UniProt Q7Z2E3 (Q7Z2E3 whole entry): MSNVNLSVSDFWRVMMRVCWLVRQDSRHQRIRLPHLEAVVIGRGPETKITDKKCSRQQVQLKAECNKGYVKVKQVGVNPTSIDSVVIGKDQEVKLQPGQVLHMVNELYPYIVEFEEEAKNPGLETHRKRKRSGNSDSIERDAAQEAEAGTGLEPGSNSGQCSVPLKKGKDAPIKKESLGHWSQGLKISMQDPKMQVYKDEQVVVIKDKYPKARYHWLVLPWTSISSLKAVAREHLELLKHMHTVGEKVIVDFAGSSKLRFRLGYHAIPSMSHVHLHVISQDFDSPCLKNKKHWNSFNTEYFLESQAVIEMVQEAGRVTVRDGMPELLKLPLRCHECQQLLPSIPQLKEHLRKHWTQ

[3] = target: T1, BANF1 (Homo sapiens) (UniProt O75531); conditions: 150 mM NaCl, 50 mM Tris pH 8.0, 0.25% NP-40, 1 mM DTT, 4 C, 2 h, 100 ug nuclear extract, double strand, one strand shown
T1 sequence: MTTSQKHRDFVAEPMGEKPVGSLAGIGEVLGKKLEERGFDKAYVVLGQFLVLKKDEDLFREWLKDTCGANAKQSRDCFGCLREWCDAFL

[4] = target: BCORL1 (Homo sapiens) (UniProt Q5H9F3); conditions: 150 mM NaCl, 50 mM Tris pH 8.0, 0.25% NP-40, 1 mM DTT; 4 C, 2 h; 100 ug nuclear extract; double strand, one strand shown
Chain of UniProt Q5H9F3 (Q5H9F3 whole entry): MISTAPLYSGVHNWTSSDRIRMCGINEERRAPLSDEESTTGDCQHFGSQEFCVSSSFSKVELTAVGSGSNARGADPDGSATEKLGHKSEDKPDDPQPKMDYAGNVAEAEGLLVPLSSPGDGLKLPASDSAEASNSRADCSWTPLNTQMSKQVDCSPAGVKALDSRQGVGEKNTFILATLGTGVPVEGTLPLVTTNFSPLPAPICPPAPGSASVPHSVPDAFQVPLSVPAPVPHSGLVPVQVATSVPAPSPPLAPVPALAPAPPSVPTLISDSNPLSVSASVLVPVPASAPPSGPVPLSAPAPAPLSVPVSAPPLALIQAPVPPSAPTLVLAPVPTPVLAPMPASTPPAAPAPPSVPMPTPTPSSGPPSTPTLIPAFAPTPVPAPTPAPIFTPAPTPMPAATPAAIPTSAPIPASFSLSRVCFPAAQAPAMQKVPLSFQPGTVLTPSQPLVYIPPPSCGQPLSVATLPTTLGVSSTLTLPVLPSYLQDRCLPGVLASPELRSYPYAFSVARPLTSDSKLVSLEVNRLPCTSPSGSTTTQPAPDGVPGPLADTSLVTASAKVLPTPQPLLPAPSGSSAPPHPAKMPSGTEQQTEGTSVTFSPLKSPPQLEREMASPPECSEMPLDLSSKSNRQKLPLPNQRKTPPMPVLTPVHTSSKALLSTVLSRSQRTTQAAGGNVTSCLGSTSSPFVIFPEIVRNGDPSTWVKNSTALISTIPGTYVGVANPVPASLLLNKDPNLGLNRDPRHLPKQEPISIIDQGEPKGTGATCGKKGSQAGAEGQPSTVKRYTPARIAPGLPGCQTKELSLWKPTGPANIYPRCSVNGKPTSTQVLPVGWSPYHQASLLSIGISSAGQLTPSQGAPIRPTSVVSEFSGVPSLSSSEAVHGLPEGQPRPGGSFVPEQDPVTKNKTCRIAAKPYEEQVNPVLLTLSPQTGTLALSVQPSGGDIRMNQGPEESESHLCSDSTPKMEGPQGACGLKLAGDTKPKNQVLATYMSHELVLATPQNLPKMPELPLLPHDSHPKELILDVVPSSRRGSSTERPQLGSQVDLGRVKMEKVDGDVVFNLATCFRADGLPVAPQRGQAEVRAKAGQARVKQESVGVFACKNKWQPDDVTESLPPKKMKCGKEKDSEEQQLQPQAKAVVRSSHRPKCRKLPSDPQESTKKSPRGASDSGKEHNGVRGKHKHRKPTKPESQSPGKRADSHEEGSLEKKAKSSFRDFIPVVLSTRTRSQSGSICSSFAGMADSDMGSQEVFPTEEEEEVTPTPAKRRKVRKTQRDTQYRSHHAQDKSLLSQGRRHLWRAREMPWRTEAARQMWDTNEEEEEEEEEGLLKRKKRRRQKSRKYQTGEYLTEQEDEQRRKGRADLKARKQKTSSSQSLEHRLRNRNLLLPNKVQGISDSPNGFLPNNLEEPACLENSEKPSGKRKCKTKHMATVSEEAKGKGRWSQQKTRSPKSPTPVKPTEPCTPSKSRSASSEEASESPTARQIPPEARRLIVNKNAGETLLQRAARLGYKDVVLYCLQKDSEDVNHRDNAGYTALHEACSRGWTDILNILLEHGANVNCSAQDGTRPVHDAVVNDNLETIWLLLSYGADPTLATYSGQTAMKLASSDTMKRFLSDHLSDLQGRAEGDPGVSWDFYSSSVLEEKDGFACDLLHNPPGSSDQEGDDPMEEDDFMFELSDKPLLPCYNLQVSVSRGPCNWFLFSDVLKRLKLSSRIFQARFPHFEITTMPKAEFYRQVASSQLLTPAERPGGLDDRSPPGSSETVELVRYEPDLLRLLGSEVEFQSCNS

[5] = target: T2, CETN2 (Homo sapiens) (UniProt P41208); conditions: 150 mM NaCl, 50 mM Tris pH 8.0, 0.25% NP-40, 1 mM DTT; 4 C, 2 h; 100 ug nuclear extract; double strand, one strand shown
T2 sequence: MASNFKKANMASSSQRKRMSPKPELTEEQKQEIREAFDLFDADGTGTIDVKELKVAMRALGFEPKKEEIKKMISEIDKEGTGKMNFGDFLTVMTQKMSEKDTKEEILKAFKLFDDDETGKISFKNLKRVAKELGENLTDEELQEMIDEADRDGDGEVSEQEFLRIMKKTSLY

[6] = target: T3, CXXC5 (Homo sapiens) (UniProt Q7LFL8); conditions: 150 mM NaCl, 50 mM Tris pH 8.0, 0.25% NP-40, 1 mM DTT; 4 C, 2 h; 100 ug nuclear extract; double strand, one strand shown
T3 sequence: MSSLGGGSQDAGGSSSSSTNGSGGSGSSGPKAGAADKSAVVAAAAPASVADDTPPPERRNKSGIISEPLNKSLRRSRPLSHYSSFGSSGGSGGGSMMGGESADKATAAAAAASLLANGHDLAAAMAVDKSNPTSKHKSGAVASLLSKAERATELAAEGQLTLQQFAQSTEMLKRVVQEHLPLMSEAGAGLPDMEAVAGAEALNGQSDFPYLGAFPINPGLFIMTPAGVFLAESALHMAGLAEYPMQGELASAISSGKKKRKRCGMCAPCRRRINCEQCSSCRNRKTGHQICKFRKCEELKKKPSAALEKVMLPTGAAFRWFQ

[7] = target: DDB1 (Homo sapiens) (UniProt Q16531); conditions: 150 mM NaCl, 50 mM Tris pH 8.0, 0.25% NP-40, 1 mM DTT, 4 C, 2 h, 100 ug nuclear extract, double strand, one strand shown
[8] = target: T4, DDB2 (Homo sapiens) (UniProt Q92466); conditions: 150 mM NaCl, 50 mM Tris pH 8.0, 0.25% NP-40, 1 mM DTT, 4 C, 2 h, 100 ug nuclear extract, double strand, one strand shown
T4 sequence: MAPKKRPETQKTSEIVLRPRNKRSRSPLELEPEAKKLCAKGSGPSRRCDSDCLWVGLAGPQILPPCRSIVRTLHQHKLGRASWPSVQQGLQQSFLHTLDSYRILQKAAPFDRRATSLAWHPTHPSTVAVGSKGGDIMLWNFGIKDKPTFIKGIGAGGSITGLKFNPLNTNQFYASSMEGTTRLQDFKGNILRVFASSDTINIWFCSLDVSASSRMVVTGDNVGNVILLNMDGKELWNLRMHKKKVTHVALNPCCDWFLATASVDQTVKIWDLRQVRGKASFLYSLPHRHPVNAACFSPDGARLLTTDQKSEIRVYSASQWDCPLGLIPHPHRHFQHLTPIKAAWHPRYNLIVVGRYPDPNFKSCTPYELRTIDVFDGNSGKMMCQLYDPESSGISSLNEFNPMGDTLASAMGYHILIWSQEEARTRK

[9] = target: T5, FBXL12 (Homo sapiens) (UniProt Q9NXK8); conditions: 150 mM NaCl, 50 mM Tris pH 8.0, 0.25% NP-40, 1 mM DTT; 4 C, 2 h; 100 ug nuclear extract; double strand, one strand shown
T5 sequence: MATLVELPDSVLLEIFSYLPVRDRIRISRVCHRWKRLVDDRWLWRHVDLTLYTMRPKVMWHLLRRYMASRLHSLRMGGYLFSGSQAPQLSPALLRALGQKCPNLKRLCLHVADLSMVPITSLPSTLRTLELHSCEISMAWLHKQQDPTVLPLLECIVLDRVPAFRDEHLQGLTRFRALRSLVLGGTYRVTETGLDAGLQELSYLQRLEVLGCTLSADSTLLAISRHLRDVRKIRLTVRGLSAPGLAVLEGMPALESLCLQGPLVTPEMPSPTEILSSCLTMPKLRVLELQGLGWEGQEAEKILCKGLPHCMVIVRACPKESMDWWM

[10] = target: T6, HLTF (Homo sapiens) (UniProt Q14527); conditions: 150 mM NaCl, 50 mM Tris pH 8.0, 0.25% NP-40, 1 mM DTT; 4 C, 2 h; 100 ug nuclear extract; double strand, one strand shown
T6 sequence: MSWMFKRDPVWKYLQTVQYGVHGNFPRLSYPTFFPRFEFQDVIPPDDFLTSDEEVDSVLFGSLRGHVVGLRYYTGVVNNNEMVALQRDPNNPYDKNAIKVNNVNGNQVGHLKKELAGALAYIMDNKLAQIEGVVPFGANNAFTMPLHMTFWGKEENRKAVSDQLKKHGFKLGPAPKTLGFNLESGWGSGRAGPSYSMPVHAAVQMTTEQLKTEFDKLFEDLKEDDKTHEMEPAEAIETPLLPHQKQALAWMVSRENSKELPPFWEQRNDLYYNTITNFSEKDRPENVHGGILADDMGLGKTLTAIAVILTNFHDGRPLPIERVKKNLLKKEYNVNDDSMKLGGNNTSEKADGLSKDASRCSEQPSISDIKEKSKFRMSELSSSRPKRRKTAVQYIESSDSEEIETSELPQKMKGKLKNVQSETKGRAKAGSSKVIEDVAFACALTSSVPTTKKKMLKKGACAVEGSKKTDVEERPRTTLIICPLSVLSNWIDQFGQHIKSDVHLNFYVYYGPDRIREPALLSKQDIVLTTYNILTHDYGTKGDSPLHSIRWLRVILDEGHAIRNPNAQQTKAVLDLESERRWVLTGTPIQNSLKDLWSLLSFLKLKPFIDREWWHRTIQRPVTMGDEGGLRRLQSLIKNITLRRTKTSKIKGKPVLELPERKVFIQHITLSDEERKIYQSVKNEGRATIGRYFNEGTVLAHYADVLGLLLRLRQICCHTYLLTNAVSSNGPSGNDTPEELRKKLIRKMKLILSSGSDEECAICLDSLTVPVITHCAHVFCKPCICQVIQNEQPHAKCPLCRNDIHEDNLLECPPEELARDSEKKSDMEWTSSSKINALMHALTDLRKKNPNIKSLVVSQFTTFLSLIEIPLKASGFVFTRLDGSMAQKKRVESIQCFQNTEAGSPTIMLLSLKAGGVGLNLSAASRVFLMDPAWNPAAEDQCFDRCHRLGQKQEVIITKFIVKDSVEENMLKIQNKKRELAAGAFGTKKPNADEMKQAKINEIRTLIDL

[11] = target: T7, KDM2B (Homo sapiens) (UniProt Q8NHM5); conditions: 150 mM NaCl, 50 mM Tris pH 8.0, 0.25% NP-40, 1 mM DTT; 4 C, 2 h; 100 ug nuclear extract; double strand, one strand shown
T7 sequence: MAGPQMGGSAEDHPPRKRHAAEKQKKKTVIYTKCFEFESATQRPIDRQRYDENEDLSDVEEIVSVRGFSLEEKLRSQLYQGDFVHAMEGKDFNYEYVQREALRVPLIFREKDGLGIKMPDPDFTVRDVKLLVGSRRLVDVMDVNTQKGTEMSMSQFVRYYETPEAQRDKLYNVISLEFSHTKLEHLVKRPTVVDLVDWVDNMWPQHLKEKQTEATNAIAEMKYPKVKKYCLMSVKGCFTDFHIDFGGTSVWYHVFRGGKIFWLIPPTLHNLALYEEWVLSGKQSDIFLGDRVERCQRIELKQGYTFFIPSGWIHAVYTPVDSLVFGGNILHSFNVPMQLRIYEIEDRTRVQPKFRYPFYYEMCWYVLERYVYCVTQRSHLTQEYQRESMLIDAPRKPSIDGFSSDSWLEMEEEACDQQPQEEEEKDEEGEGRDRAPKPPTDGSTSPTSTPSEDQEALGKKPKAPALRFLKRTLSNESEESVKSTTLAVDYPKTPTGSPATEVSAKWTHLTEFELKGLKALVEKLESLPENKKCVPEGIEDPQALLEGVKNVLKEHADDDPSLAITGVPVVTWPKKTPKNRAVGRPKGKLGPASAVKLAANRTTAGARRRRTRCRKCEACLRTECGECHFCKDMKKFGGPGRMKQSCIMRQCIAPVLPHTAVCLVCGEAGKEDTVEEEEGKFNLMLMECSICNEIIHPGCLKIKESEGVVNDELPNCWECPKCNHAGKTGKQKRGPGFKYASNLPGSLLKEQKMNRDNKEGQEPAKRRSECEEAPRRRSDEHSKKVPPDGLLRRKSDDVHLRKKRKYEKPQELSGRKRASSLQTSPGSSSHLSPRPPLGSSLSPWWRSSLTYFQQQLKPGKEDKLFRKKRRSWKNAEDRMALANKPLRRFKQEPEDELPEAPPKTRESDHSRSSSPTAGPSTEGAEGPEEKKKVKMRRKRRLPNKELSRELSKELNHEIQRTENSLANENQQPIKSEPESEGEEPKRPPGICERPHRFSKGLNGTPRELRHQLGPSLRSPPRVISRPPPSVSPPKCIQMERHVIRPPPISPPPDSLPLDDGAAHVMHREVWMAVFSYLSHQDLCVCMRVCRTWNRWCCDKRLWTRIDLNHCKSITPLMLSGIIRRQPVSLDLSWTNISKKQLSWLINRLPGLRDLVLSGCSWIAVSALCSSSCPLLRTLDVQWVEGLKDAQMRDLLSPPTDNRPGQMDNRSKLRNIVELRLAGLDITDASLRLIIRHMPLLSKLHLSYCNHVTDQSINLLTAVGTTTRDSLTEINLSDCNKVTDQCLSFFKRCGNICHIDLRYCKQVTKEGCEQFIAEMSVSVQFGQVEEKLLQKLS

[12] = 5mC at 15,17 (strand 1), 5mC at 14,16 (strand 2)

Sequence: GCCGCCGCCCTTCTCGCGAGACTGCCGGGCC [CGCG bait]
- half-maximal binding [1]: 317 nM
- half-maximal binding [2]: 165 nM
- half-maximal binding [3]: 223 nM
- half-maximal binding [4]: 229 nM
- half-maximal binding [5]: 129 nM
- half-maximal binding [6]: 200 nM
- half-maximal binding [7]: 338 nM
- half-maximal binding [8]: 320 nM
- half-maximal binding [9]: 417 nM
- half-maximal binding [10]: 341 nM
- half-maximal binding [11]: 151 nM

Sequence: GAGAGCCCCGCCCCCTGGCT [SP/KLF bait]
- half-maximal binding [3]: 245 nM
- half-maximal binding [7]: 101 nM

Sequence: GCCGCCGCCCTTCTCGCGAGACTGCCGGGCC [methylated CGCG bait]
- half-maximal binding [2, 12]: 113 nM
- half-maximal binding [3, 12]: 191 nM
- half-maximal binding [7, 12]: 198 nM
- half-maximal binding [8, 12]: 185 nM
